System: adenovirus
Assay: First fifteen EIND patients: adenovirus
[1] = patient with pre-treatment resistance to cidofovir and CMX001

CCCCCCCCCCCCCCCCOCCCOP(=O)(O)CO[C@H](CO)Cn1ccc(N)nc1=O [CMX001, Hexadecyloxypropyl-cidofovir]
rebound following discontinuation of CMX001 [1]: 3 log
reduction in viremia [1]: ~1.5 log 10
evaluable patients with >99% (2 log 10) reductions in adenovirus or below the limit of detection (six AdV patients): 5/6

Source: patent US20150141375A1 (priority 2009, published 2015)
